From PubChem BioAssay AID1745853 (National Center for Advancing Translational Sciences (NCATS), 2022)
The list shows a part of the results. These are further read-outs of the screen, such as a control signal, another cell line or another target. No call is given for them.

Legend:
Assay in all cases: Primary Screen for Target Class Profiling of Small Molecule Inhibitors of Methyltransferases
[1] = molecular target: Glycine N-methyltransferase (Homo sapiens) (UniProt Q14749); details: purified enzyme, MTase-Glo SAH luminescence; measured here: GNMT inhibition; at 40 µM; stronger effect = lower value
In short: (§1)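 Each enzyme was assayed with SAM and its substrate. SAH formation detected by MTase-Glo luminescence; single-point 40 uM screen[…].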

[2] = molecular target: Guanidinoacetate N-methyltransferase (Homo sapiens) (UniProt Q14353); details: purified enzyme, MTase-Glo SAH luminescence; measured here: GAMT inhibition; at 40 µM; stronger effect = lower value
In short: as §1

[3] = molecular target: Histamine N-methyltransferase (Homo sapiens) (UniProt P50135); details: purified enzyme, MTase-Glo SAH luminescence; measured here: HNMT inhibition; at 40 µM; stronger effect = lower value
In short: as §1

[4] = molecular target: Nicotinamide N-methyltransferase (Homo sapiens) (UniProt P40261); details: purified enzyme, MTase-Glo SAH luminescence; measured here: NNMT inhibition; at 40 µM; stronger effect = lower value
In short: as §1

[5] = molecular target: Phenylethanolamine N-methyltransferase (Homo sapiens) (UniProt P11086); details: purified enzyme, MTase-Glo SAH luminescence; measured here: PNMT inhibition; at 40 µM; stronger effect = lower value
In short: as §1
% is set by controls: 0 for no effect and ±100 for the full control effect.

Compound | activity change, negative = inhibition [1] [%] | activity change, negative = inhibition [2] [%] | activity change, negative = inhibition [3] [%] | activity change, negative = inhibition [4] [%] | activity change, negative = inhibition [5] [%]
COc1ccc(NS(=O)(=O)c2cc3[nH]c(=O)[nH]c3cc2C)cc1Cl | 13.5 | 1.55 | 14.1 | -2.53 | -0.032
O=C(CCc1nnc2n(Cc3ccc(Cl)cc3)c(=O)c3ccccc3n12)NCc1ccc(F)cc1 | 0.76 | 0.651 | 9.29 | 15.8 | 4.78
O=C(C1CCCC1)N1CC2(CCN(Cc3ccc(Cl)cc3)C2)Cc2ccccc21 (stereo not given) | -2.43 | -3.11 | -1.81 | -6.79 | -1.23
COc1ccccc1CN1C(=O)c2cc(-c3cccs3)nn2CC1(C)C(=O)NC1CCCCCC1 (stereo not given) | 4.23 | 1.25 | 3.81 | -2.47 | 2.6
CC(=O)Nc1c2n(c3ccc(F)cc13)CC(C)(C(=O)NCCC(C)C)N(CCC(C)C)C2=O (stereo not given) | 2.82 | 0.023 | 5.96 | 5.31 | 0.18
O=C(Cn1ccc2cc(S(=O)(=O)N3CCCC3)ccc21)NCCc1ccco1 | 2.38 | 4.16 | 4.06 | 4.02 | -0.656
CCC(=O)N1CCc2sc(C(=O)N3CCN(c4cccc(Cl)c4)CC3)cc2C1 | -7.78 | -2.67 | -3.98 | -7.63 | -0.397
CC(C)(C)NC(=O)[C@@H]1CN(Cc2cccnc2)CCN1C[C@@H](O)C[C@@H](Cc1ccccc1)C(=O)N[C@H]1c2ccccc2C[C@H]1O | 4.05 | 4.6 | 11.6 | -11.7 | 0.625
C=CC(C)(C)O[C@@H]1O[C@H](CO[C@@H]2OC[C@](O)(CO)[C@H]2O)[C@@H](O)[C@H](O)[C@H]1O | 0 | 3.84 | 6.51 | -4.82 | 6.07
CC(=O)O[C@H]1CC[C@]2(C)[C@H]3CC[C@]4(C)Oc5oc(C)cc(=O)c5C[C@H]4[C@]3(C)CC[C@H]2C1(C)C | -0.126 | -1.35 | -2.3 | -19.2 | 0.228
CC(C)Cn1c(=O)c2ccccc2n2c(=O)n(CC(=O)NCc3ccccc3)nc12 | -0.702 | 0 | 3.72 | -1.66 | -0.954
O=C(O)c1ccccc1Nc1cccc(OCc2ccc3ccccc3n2)c1 | -24.9 | 11.3 | 1.03 | -9.46 | 0.693
CC1(C(=O)NC2CCCCC2)Cn2c(nc3ccccc32)C(=O)N1Cc1ccccc1 (stereo not given) | -0.325 | 4.18 | 3.42 | -3.74 | 0.501
Cc1ccc(CN2CCC([C@@H]3CNC[C@H]3CO)CC2)s1 | -3.27 | -2.37 | -9.31 | -6.33 | -3.13
OC[C@@]1(O)CO[C@@H](OC[C@H]2O[C@@H](OCc3ccccc3)[C@H](O)[C@@H](O)[C@@H]2O)[C@@H]1O | 4.15 | 7.06 | 7.76 | -4.31 | 3.05
COc1cccc(C2c3cccn3-c3sc4c(c3CN2C(=O)Nc2cc(C)ccc2OC)CCCC4)c1 (stereo not given) | 2.13 | 0.059 | 3.93 | 4.24 | 5.82
COc1ccc2cc1Oc1ccc(cc1)C[C@H]1c3c(cc4c(c3Oc3cc5c(cc3OC)CCN(C)[C@@H]5C2)OCO4)CCN1C | -34.9 | -5.64 | -9.21 | -45.3 | -10.8
COc1cccc(CCNC(=O)c2c(C)noc2-c2ccco2)c1 | -8.4 | -13.4 | -5.29 | -24.5 | -9.03
O=C(Nc1ccccc1)NC1CCN(CCn2nc3n(c2=O)CCCC3)C1 (stereo not given) | -4.31 | -2.78 | -0.7 | -4.8 | -6.28

Compound | activity change, negative = inhibition [1] [%] | activity change, negative = inhibition [2] [%] | activity change, negative = inhibition [3] [%] | activity change, negative = inhibition [4] [%] | activity change, negative = inhibition [5] [%]
COc1cc(C(O)C(=O)O)ccc1O (stereo not given) | -0.681 | 7.91 | 3.36 | -6.41 | 2.31
COc1ccc(CNC(=O)C2CCN(C(=O)c3oc4cc5sc(N(C)C)nc5cc4c3C)CC2)cc1 | -1.82 | 4.75 | -0.865 | 4.33 | -1.64
CO[C@H]1/C=C/C=C/C=C/C[C@H](OC(=O)[C@@H](C)NC(=O)C2CCCCC2)[C@H](C)[C@@H](O)/C(C)=C/CCc2cc(O)cc(c2)NC(=O)C1 | -1.7 | 2.91 | 7.66 | -10.1 | -7.14
CCc1ccccc1NC(=O)CN(C)S(=O)(=O)c1ccc2[nH]c3c(c2c1)CCCC3 | -8.89 | 2.26 | 0.223 | -1.38 | -0.563
COc1cccc(N2C(=O)CSc3c(c4ccccc4n3C)C2C(=O)NCCCOC(C)C)c1 (stereo not given) | 4.67 | 0.069 | -0.176 | -4.61 | 2.81
Cc1cccc(-c2nnn3c2nc(N2CCSCC2)c2cc(Cl)ccc23)c1 | 1.91 | 0.795 | 10.8 | 11.6 | 3.25
CN(C)C(=O)NC1CCC(CCN2CCN(c3cccc(Cl)c3Cl)CC2)CC1 (stereo not given) | -1.55 | -4.88 | 4.03 | -15.8 | -1.12
CC(C)CCn1c(=O)c2ccc(C(=O)NC(C)C)cc2n2c(=O)n(CC(=O)Nc3ccc(F)cc3)nc12 | 2.37 | 2.21 | 0.213 | -6.32 | 0.05
CC1CCCCC1NC(=O)C1(C)Cn2c(ccc2-c2ccco2)C(=O)N1Cc1ccccc1F (stereo not given) | 0.194 | 0 | 3.2 | -0.471 | -2.92
CN(C)CCC(c1ccc(Cl)cc1)c1ccccn1 (stereo not given) | 3.13 | 7.73 | -8.7 | -7.7 | -0.714
Cc1ccc(OC(C)c2nc(-c3cccnn3)no2)cc1C (stereo not given) | -2.98 | -3.32 | -0.834 | -6.8 | -6.13
C/C=C(\C)C(=O)O[C@H]1C[C@](C)(O)[C@H]2CC=C(C)[C@H]2[C@@H]2OC(=O)[C@H](C)[C@H]21 | -4.48 | -9.56 | 3 | -20.5 | -6.15
COc1ccc(CN2C(=O)c3ccccc3CC2(C)C(=O)NC2CCCCC2)cc1 (stereo not given) | -2.91 | 2.49 | 11.3 | 9.65 | 3.26
CCC(C)NC(=O)c1ccc2c(=O)n(CC(C)C)c3nn(Cc4ccc(F)cc4)c(=O)n3c2c1 (stereo not given) | -1.68 | 3.6 | 3.79 | 1.33 | -0.898
C[C@H](O)C(=O)C1=Nc2c(nc(N)[nH]c2=O)NC1 | 4.73 | 8.86 | 10.8 | -6.64 | -1.24
CC(C)CNC(=O)c1ccc2c(=O)n(CC(C)C)c3nn(Cc4cccc(Cl)c4)c(=O)n3c2c1 | 3.71 | 5.46 | 6.05 | 6.89 | 4.37
Fc1ccccc1CN1CCCC2(CCN(c3cnccn3)C2)C1 (stereo not given) | -1.67 | -1.86 | -2.22 | -17.5 | -2.23
CN1C[C@@H](NC(=O)CC(C)(C)CC(=O)O)C[C@H]1c1nc(-c2ccccn2)no1 | -2.11 | -1.71 | -3.44 | -6.39 | 12.5
